From PubChem BioAssay AID1346428 (National Center for Advancing Translational Sciences (NCATS), 2018)
Several values for one entry are separate records, joined by “and”; a condition that tells them apart may be missing. Equal values may be shown once. The campaign covered roughly 48,000 compounds. About 1,200 (2.5%) were called active. Not shown: some 2% with an inconclusive outcome.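 Rule for the calls: active = activation of at least 60% and not above a set upper limit (about 1 call in 100 departs from these limits); inconclusive = activation of 40% to 60%, or above that upper limit; inactive = activation under 40%.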 This is one part of the list.

Target: Probable G-protein coupled receptor 32 (Homo sapiens) (UniProt O75388)
Assay: qHTS for Agonists of Human Resolvin D1 Receptor DRV1; note: 0% is about no effect
Conditions: CHO-K1 GPR32 beta-arrestin PathHunter luminescence, 90 min; at 76.9 µM; active compounds read high; zero percent set by DMSO-only wells
Summary of the method: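 Step 1: seed CHO-K1 GPR32 beta-arrestin cells, 2,500/well, overnight at 37 °C. Step 2: add compounds, 90 min at 37 °C. Step 3: detection reagent, 1 h ambient, then luminescence.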

Sequence of UniProt O75388 (O75388 whole entry, looked up): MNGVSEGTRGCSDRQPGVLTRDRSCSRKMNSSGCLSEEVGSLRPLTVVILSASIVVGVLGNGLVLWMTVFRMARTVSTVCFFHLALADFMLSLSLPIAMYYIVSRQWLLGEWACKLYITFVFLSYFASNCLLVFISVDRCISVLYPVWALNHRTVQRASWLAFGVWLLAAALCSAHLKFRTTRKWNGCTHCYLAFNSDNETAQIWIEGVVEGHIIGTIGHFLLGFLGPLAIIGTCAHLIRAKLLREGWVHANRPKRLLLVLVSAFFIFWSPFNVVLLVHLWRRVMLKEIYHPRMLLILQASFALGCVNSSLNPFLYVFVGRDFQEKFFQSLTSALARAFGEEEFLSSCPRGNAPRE

activation, active:
O=C(NC1CCCC1)c1c[nH]c2ccc(S(=O)(=O)Nc3cccc(C(F)(F)F)c3)cc2c1=O 82.3%

activation, inactive:
O=C(Cc1ccccc1)Nc1sc2c(c1C(=O)Nc1ccccc1Cl)CCC2 18.9%
Cc1nn(CC(=O)NCCc2ccc(Cl)cc2)c(=O)c2cc3cc(F)ccc3n12 6.48%
COc1ccc(CNC(=O)Cn2nc(C)c3nn(-c4ccc(Cl)cc4)c(C)c3c2=O)cc1 -3.19%
CCCN1C(=O)C(Cc2nc3ccccc3c(=O)n2CC)c2ccccc21 (stereo not given) -29.5%
CCCc1cc(N2CCN(c3cc(Cl)ccc3C)CC2)n2cnnc2n1 7.26%
Cc1ccc(NC(=O)CCc2nnc3n(CC(C)C)c(=O)c4ccccc4n23)cc1C -0.413%
Cc1ccc(-n2nc3c(N4CCC(C(=O)N5CCCCC5)CC4)nnc(C)c3c2C)cc1 2.81%
CCCOc1ccc(N2CC(C(=O)Nc3cccc(Cl)c3Cl)CC2=O)cc1 (stereo not given) -28.5%
Cc1ccc2oc(C(=O)Nc3c(C(=O)Nc4ccccc4)oc4ccccc34)cc(=O)c2c1 7.32%
O=S(=O)(c1ccccc1)c1nnn2c1nc(NCc1cccs1)c1sccc12 1.44%
Cc1ccc(NC(=O)CCn2cccn2)cc1Cl -2.82%
CCOc1ccc(CCNC(=O)CN2C(=O)COc3ccc(S(=O)(=O)N4CCC(C)CC4)cc32)cc1 -8.57%
COc1ccc(NC(=O)Cn2c(=O)n(-c3ccccc3)c(=O)c3c4c(sc32)CCCC4)cc1 -2.45%
Cc1ccc(NC2=CC(c3ccccc3F)N(c3ccc(C)cc3)C2=O)cc1 (stereo not given) -34.2%
COC(=O)c1c(NC(=O)c2cc3nc(-c4ccc(OC)cc4)cc(C(F)(F)F)n3n2)sc2c1CCCC2 -24.5%
CCCCN(C)c1nnc(NC(=O)Nc2cccc(C(C)=O)c2)s1 -0.924%
CCOc1ccc(Cn2c(=O)oc3ccccc32)cc1 -3.64%
Clc1cccc(CNc2ncnc3c2nc2n3CCCC2)c1 -4.44%
COc1ccc(-n2ncc3c(N4CCN(c5cccc(C)c5)C(C)C4)ncnc32)cc1 (stereo not given) 30%
Cc1nnc(SCc2cc(=O)n3c(C)cccc3n2)s1 -17.6%
O=C(C1CCC(CNS(=O)(=O)c2ccc(Br)s2)CC1)N1CCN(c2ccccc2)CC1 (stereo not given) 17.4%
O=C1C(=O)c2ccccc2C(O)=C1C1CCC(c2ccc(Cl)cc2)CC1 (stereo not given) 22.9%
Cc1ccc(-c2noc(COc3ccc(Br)c(C)c3)n2)cc1 6.62%
COc1ccc(Cl)cc1NC(=O)CCc1nc(-c2ccccc2F)no1 -0.548%
NS(=O)(=O)c1ccc(NC(=O)CCn2c(=O)oc3ccccc32)cc1 -4.79%
Cc1c(C(=O)N2CCCC2)oc2c1-c1nn(CC(=O)NCc3cccc(Br)c3)cc1CC2 -16.9%
O=C(Cn1c(=O)n(Cc2ccc3c(c2)OCO3)c(=O)c2ccccc21)Nc1cccc(Cl)c1 -27.3%
Cc1ccc(-n2nnc3c(sc4nc(C)c(C)cc43)c2=O)cc1Cl -1.43%
COc1ccc(CSc2nc3ncccc3[nH]2)cc1 9.12%
Cc1ccc(C)c(NC(=O)C2CCCN(S(=O)(=O)c3c(C)noc3/C=C/N(C)C)C2)c1 (stereo not given) -22.4%
Cn1c(=O)oc2cc(S(=O)(=O)CCC(=O)NCc3ccccc3)ccc21 12.1%
CCOc1ccc(N(C)S(=O)(=O)c2ccc3c(c2)C(C)(C)C(=O)N3C)cc1 29.6%
CCOc1ccc(N2CC(c3nc(-c4cc(OC)c(OC)c(OC)c4)no3)CC2=O)cc1 (stereo not given) -18.6%
COc1cccc(N2CC(NC(=O)c3ccc(S(=O)(=O)N4CCCC4)cc3)CC2=O)c1 (stereo not given) -6.67%
COc1ccc(-c2nc3n(n2)C(c2ccc(OC)cc2)C(C(=O)Nc2cccnc2)=C(C)N3)cc1 (stereo not given) -19.1%
CCOC(=O)c1[nH]c(C)c(CCC(=O)N2CCN(c3ccccc3)CC2)c1C -17.7%
COCCNC(=O)C1CCN(S(=O)(=O)c2ccc3c(c2)CCCN3C(C)=O)CC1 13.9%
CCN(c1ccccc1)S(=O)(=O)c1nnc(NC(=O)COc2ccc(OC)cc2)s1 -3.21%
CCOC(=O)c1c(C)oc2nc(C)nc(NCC3CCN(Cc4ccc(Cl)cc4)CC3)c12 -8.35%
CC(=O)OCC#CCSc1nnc(-c2cccc(Br)c2)o1 -6.05%
Cc1ccccc1CNC(=O)C(C)n1nc(C)n2c(cc3occc32)c1=O (stereo not given) -17.9%
Cc1ccc(NC(=O)CN2C(=O)CCSc3ccc(S(=O)(=O)N4CCCC4)cc32)cc1 -10.6%
COc1ccc(NC(=O)C2=CC(c3cccs3)=NS(=O)(=O)N2C)cc1 -21.7%
COc1ccc(CC(=O)Nc2nc3c(s2)CC(C(C)(C)C)CC3)cc1 (stereo not given) -30.6%
CCn1c(CNC(=O)c2ccc(OC)cc2)nnc1SCC(=O)Nc1ccc(OC)cc1 -2.74%
CC(C)=CCC[C@@](C)(O)[C@H]1CC=C(C)CC1 -16.3%
CCc1ccc(-c2nc(CSCC(=O)NCc3ccccc3OC)c(C)o2)cc1 -12.6%
Cc1ccc(-c2nc3c(c(SCC(=O)N4CCCCC4)n2)Cc2cc(C)ccc2O3)cc1 -6.21%
CC(C)NC(=O)Nc1ccc2c(c1)N(C)C(=O)c1ccccc1S2 7.19%
COc1ccc(-c2nc3scc(CCNS(=O)(=O)c4ccc(F)cc4F)n3n2)cc1OC -14.5%
Cc1nn(Cc2noc(C(=O)NCc3ccc(F)cc3)n2)c(C)c1Br -17.8%
O=C(NCCc1ccccc1)c1ccc2c(c1)N(Cc1ccccc1Cl)C(=O)c1ccccc1S2 -9.32%
CCOc1ccc(CC(=O)Nc2ccc3nc(N4CCCCC4)cc(C)c3c2)cc1OCC -3.16%
CCOC(=O)c1cccc(NC(=O)CSc2ncc3c(n2)-c2ccccc2N(C)S3(=O)=O)c1 -15.4%
COc1ccccc1CNC(=O)C(Cc1ccccc1)NS(=O)(=O)c1ccc2c(c1)oc(=O)n2C (stereo not given) -0.262%
O=C1CC(c2nc3ccccc3n2CCCCOc2ccccc2)CN1c1ccccc1Cl (stereo not given) 11.3%
CC1CCCCN1Cc1c(O)ccc2c(=O)c(-c3cccc(Cl)c3)c(C(F)(F)F)oc12 (stereo not given) -11.7%
CCc1nnc(NC(=O)CSc2nc3c([nH]c4ccccc43)c(=O)n2-c2cc(C)cc(C)c2)s1 44.7%
CC1C(=O)N2CCCc3cc(S(=O)(=O)Nc4ccc(Br)cc4F)cc1c32 (stereo not given) 10.5%
CCOc1cc(-c2nnc(SCC(=O)NCc3ccc(C)cc3)nc2-c2ccc(OC)c(OCC)c2)ccc1OC -11.9%
O=C(Cn1c(=O)oc2cc(S(=O)(=O)NCc3ccccc3)ccc21)N(CCO)Cc1ccccc1 -6.88%
COc1ccc(OC)c(NC(=O)c2nc(SCc3ccccc3F)ncc2Cl)c1 -12.8%
COc1cccc(NC(=O)C2CCCN2S(=O)(=O)c2ccc3c(c2)n(C)c(=O)c(=O)n3C)c1 (stereo not given) -10.6%
CCc1cccc(-n2c(=O)c3cccnc3n2CC(=O)Nc2ccccc2C(=O)OC)c1 -8.52%
CCC1CN(C(=O)Nc2cc(OC)cc(OC)c2)c2ccccc2S1 (stereo not given) -20.4%
CCOc1ccc(NC(=O)c2ccc3nc(Cc4ccccc4)oc3c2)cc1 -2.19%
Cc1ccc2oc(C(=O)Nc3sc4c(c3C(=O)NCc3ccccc3)CCCC4)cc(=O)c2c1 -9.01%
COc1ccc(-n2nc3cc(C)c(NC(=O)c4ccc(C)cc4C)cc3n2)cc1Cl -0.308%
Cc1ccc(OCC(=O)OCc2cc(=O)n3c(C)csc3n2)cc1 8.94%
Cc1ccccc1NC(=O)N1CCC(CN2CCCC2)CC1 -13%
CCC(=O)N1CCc2cc(S(=O)(=O)NC(Cc3ccccc3)C(=O)NCc3ccc(F)cc3)ccc21 (stereo not given) 2.83%
Nc1ccc(C(=O)OCC(O)CO)cc1 (stereo not given) -2.69%
COc1cc(NC(=O)CSc2ccc(-c3sc(-c4ccccc4)nc3C)nn2)cc(OC)c1 -17.4%
CCCc1cc(=O)[nH]c2nnc(SCCC(C)C)n12 29.8%
COC(=O)c1c(NC(=O)COc2ccc(OC)cc2)sc2c1CCC(C)C2 (stereo not given) -2.84%
Cc1cc(C)cc(OCCSc2nc(-c3ccc(C(C)(C)C)cc3)nc3cc(=O)[nH]n23)c1 27.2%
CN1Cc2c(N)cccc2C(c2ccccc2)C1 (stereo not given) 25.6% and -20%
NC(=O)NNc1ccccc1 -14%
CC(C)Oc1ccc(CNC(=O)C2CCCN(S(=O)(=O)c3ccc4c(ccn4C)c3)C2)cc1 (stereo not given) 2.58%
CCCn1cc(S(=O)(=O)c2ccc(OC)cc2)c(=O)c2cc(F)c(N3CCCCCC3)cc21 -4.55%
Cc1ccc(CSc2nnc3[nH]c(=O)cc(C)n23)cc1 31%
CCn1cc(S(=O)(=O)c2ccc(C)cc2C)c(=O)c2cc(F)c(N3CCCC3)cc21 -11.6%
COc1ccc(CN2CCN(S(=O)(=O)c3ccccc3)CC2)c(OC)c1 15.2%
CCC(=O)N1c2ccccc2CC1C(=O)NCCc1ccc(OC)cc1OC (stereo not given) 14.9%
